In all, about 33,000 sequences were measured (“E-score (-0.5 to 0.5)”: median about -0.01, highest 2% from about 0.26 on). This is one part of the list.
target: Ste12 (UniProt P13574); test: PBM E-score (8-mer binding enrichment) (E-score (-0.5 to 0.5)); higher = stronger / more preferred TF binding; most listed sequences are background and not binding sites; details: protein concentration: 200 nM; construct: GST-DNA-binding domain
Method: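 Universal 'all 10-mer' protein binding microarrays (Agilent AMADID 015681) probed with GST-tagged S. cerevisiae TFs (full-length or DBD) made by in vitro transcription/translation (PURExpress), about 100-200 nM. Bound TF was detected with fluorescent anti-GST. Each ungapped 8-mer (which stands for itself and its reverse complement) is scored by the PBM enrichment score (E-score), a modified Wilcoxon-Mann-Whitney statistic from -0.5 to +0.5, computed with the Universal PBM Analysis Suite. Scale: above 0.35 generally sequence-specific binding.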

Compared with ATCCGAGA, CACGACCA is lower in “PBM E-score” value: 0.0742 for the first, -0.178 for the second.

Compared with CTACCTGC, GGCGGGGA is higher in “PBM E-score” value: 0.00011 for the first, 0.407 for the second.

Going from CCGATCTA to ACAGTGGT, the “PBM E-score” value falls from -0.0821 to -0.153.

Going from GGCCTAAA to ACAGACAG, the “PBM E-score” value rises from -0.0441 to 0.165.

Going from ACCAGTGG to ACTGTCGA, the “PBM E-score” value rises from -0.096 to -0.0928.

Compared with GACGTCGA, ATCCTTTC is lower in “PBM E-score” value: 0.0215 for the first, -0.0183 for the second.

First: AGTAGCGG
Second: GAATGCCA
The “PBM E-score” value of the first is lower: -0.123 for the first, -0.041 for the second.

Going from CGAAACGC to AGTTGCTC, the “PBM E-score” value falls from 0.248 to -0.232.

Compared with CGGTTACC, GCGTCAAA is higher in “PBM E-score” value: -0.00816 for the first, 0.203 for the second.

First: ACACGCGT
Second: AAAACTTT
The “PBM E-score” value of the first is lower: 0.118 for the first, 0.249 for the second.

Going from AACGGCCA to CACTGGTC, the “PBM E-score” value falls from -0.0659 to -0.186.

Compared with AAATGACC, GCAACGCC is lower in “PBM E-score” value: 0.0477 for the first, -0.0303 for the second.

First: ATATTAAG
Second: CCTTGGAC
The “PBM E-score” value of the first is higher: 0.109 for the first, -0.0997 for the second.

Going from CTTAGTGC to GGGGACAC, the “PBM E-score” value falls from -0.101 to -0.247.

First: AGCAAGCG
Second: GAAGGCAC
The “PBM E-score” value of the first is higher: 0.0225 for the first, -0.0106 for the second.

Going from GGCAGCCC to CCATGTCA, the “PBM E-score” value rises from -0.142 to -0.129.

Compared with GTATACAC, CCTGAACC is higher in “PBM E-score” value: -0.116 for the first, -0.0988 for the second.

First: AGCCGGAG
Second: AGGATCGA
The “PBM E-score” value of the first is higher: 0.15 for the first, -0.062 for the second.

First: ACAGGCAT
Second: CTTGGAAA
The “PBM E-score” value of the first is lower: -0.115 for the first, 0.18 for the second.

Going from CCCGCTTC to GTTAAAAA, the “PBM E-score” value rises from -0.0169 to 0.291.

First: ATCAATTC
Second: ACCAGCCT
The “PBM E-score” value of the first is higher: 0.0349 for the first, -0.0675 for the second.

First: GCTTGTCC
Second: CCAGCGAG
The “PBM E-score” value of the first is lower: -0.223 for the first, 0.0375 for the second.

Going from AAGCCTAC to AGGAGGAT, the “PBM E-score” value rises from -0.165 to -0.0278.

Going from CACCGGGC to GGGGGTGA, the “PBM E-score” value falls from -0.084 to -0.159.

Going from AACCCACT to GTGTCCGA, the “PBM E-score” value falls from 0.0618 to -0.0926.

First: AAGACCTT
Second: ATTCCGTC
The “PBM E-score” value of the first is higher: 0.0345 for the first, -0.0186 for the second.

Compared with TGTCCAAA, GTTGCGCA is lower in “PBM E-score” value: 0.135 for the first, -0.22 for the second.

Compared with TCTTGCAA, ATATTTTA is higher in “PBM E-score” value: 0.224 for the first, 0.235 for the second.

Compared with CGAGTATA, ACATATGC is lower in “PBM E-score” value: 0.12 for the first, -0.151 for the second.

Compared with CGCTAACA, CGAAATCC is higher in “PBM E-score” value: 0.00748 for the first, 0.132 for the second.

Going from TGGAGTAA to CCCAGGGA, the “PBM E-score” value falls from 0.144 to -0.184.

Compared with AACAGCCT, ATCCTGAC is lower in “PBM E-score” value: 0.00024 for the first, -0.0029 for the second.

Going from AGCACTGA to ACGTTATC, the “PBM E-score” value falls from 0.0589 to -0.111.

First: GCCACCGA
Second: AGACCGAC
The “PBM E-score” value of the first is lower: -0.181 for the first, 0.126 for the second.

Compared with ACTTGCGA, AAGTATAT is higher in “PBM E-score” value: -0.0121 for the first, 0.146 for the second.

First: ACAAGCCC
Second: CCGGACCA
The “PBM E-score” value of the first is lower: -0.165 for the first, -0.0561 for the second.

First: AGCTTCCG
Second: CCATGTCG
The “PBM E-score” value of the first is higher: -0.0505 for the first, -0.0907 for the second.

Going from CGAATTAA to AAACGTGC, the “PBM E-score” value falls from 0.23 to 0.034.

Going from ATGGCGTC to AGTTTATA, the “PBM E-score” value rises from -0.0126 to 0.218.

Going from CCCATAAC to ACTGCGCA, the “PBM E-score” value rises from -0.0172 to 0.0963.

First: AATTACTG
Second: ACCCCATC
The “PBM E-score” value of the first is lower: 0.0213 for the first, 0.1 for the second.

Going from ACAGTTGA to CATGGACC, the “PBM E-score” value rises from -0.0793 to -0.0637.

Going from AGGTAAAG to ATCAGTAG, the “PBM E-score” value falls from 0.206 to 0.0301.
